Reference: ChEMBL document CHEMBL2163248, “Classification of inhibitors of hepatic organic anion transporting polypeptides (OATPs): influence of protein expression on drug-drug interactions” (J Med Chem, 2012)

Assays:
[1] = target: T1, Solute carrier organic anion transporter family member 1B3 (Homo sapiens, UniProt Q9NPD5); assay: Inhibition of human liver OATP1B3 expressed in HEK293 Flp-In cells assessed as reduction in [3H]E17-betaG uptake at 20 uM incubated for 5 mins by scintillation counting; details: hek293, 5 min
T1 sequence (Q9NPD5 whole entry): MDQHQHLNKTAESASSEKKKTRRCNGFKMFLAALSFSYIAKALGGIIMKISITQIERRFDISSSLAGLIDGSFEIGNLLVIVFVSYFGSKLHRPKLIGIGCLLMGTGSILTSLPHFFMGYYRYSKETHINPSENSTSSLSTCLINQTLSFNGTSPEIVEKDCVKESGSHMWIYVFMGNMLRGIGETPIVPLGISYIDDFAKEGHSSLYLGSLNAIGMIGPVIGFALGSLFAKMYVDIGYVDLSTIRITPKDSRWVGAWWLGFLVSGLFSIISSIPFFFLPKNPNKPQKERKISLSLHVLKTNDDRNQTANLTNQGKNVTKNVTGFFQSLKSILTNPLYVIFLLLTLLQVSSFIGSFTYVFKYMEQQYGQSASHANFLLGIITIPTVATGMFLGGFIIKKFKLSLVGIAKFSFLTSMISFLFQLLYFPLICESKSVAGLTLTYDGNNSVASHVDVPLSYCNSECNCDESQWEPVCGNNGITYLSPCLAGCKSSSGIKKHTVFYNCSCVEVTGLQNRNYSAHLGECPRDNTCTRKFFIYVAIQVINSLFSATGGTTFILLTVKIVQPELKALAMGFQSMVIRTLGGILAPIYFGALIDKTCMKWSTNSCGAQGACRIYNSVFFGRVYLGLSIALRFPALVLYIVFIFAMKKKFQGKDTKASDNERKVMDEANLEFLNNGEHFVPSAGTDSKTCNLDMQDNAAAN

[2] = target: T2, Solute carrier organic anion transporter family member 2B1 (Homo sapiens, UniProt O94956); assay: Inhibition of human liver OATP2B1 expressed in HEK293 Flp-In cells assessed as reduction in [3H]E3S uptake at 20 uM incubated for 5 mins by scintillation counting; details: hek293, 5 min
T2 sequence (O94956 whole entry): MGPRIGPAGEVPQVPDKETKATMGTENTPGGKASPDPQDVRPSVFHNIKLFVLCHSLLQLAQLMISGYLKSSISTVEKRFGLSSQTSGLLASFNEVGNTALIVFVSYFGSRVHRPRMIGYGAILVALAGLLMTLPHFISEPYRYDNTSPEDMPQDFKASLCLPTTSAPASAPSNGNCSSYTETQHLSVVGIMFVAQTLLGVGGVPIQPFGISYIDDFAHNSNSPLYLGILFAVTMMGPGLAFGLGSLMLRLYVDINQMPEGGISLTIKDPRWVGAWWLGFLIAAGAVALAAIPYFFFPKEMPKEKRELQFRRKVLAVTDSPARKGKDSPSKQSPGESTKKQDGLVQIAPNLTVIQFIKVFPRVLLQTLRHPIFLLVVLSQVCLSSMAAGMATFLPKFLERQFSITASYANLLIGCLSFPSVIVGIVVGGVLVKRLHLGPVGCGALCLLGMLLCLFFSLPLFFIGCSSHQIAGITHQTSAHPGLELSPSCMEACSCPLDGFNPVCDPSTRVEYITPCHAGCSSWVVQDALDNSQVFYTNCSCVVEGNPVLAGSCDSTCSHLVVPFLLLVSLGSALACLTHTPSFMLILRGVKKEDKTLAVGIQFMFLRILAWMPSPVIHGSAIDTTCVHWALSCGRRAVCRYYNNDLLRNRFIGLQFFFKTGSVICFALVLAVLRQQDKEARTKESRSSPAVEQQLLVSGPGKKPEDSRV

[3] = target: T3, Solute carrier organic anion transporter family member 1B1 (Homo sapiens, UniProt Q9Y6L6); assay: Inhibition of human liver OATP1B1 expressed in HEK293 Flp-In cells assessed as reduction in E17-betaG uptake at 20 uM by scintillation counting; details: hek293, 20 µM
T3 sequence (Q9Y6L6 whole entry): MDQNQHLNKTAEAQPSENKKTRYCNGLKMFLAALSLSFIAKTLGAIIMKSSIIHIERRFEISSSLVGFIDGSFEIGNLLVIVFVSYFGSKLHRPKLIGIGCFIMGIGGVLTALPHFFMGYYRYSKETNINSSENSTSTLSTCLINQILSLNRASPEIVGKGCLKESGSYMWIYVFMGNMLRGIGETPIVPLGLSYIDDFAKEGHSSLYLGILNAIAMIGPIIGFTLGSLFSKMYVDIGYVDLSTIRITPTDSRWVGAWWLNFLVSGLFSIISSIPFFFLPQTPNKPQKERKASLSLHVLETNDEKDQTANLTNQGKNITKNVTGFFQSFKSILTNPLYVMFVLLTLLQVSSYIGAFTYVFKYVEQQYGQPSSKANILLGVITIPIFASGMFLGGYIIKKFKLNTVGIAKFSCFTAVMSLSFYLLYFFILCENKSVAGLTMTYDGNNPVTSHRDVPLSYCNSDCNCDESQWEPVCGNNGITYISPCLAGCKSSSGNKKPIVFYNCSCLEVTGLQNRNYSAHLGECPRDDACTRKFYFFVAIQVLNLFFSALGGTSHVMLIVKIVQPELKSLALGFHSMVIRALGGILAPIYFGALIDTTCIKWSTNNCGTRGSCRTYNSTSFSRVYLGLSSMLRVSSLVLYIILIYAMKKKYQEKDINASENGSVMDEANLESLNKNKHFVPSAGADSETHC

[4] = target: T3, Solute carrier organic anion transporter family member 1B1; assay: Activity at human liver OATP1B1 expressed in HEK293 Flp-In cells; type: ADME, cell-based
[5] = target: T1, Solute carrier organic anion transporter family member 1B3; assay: Activity at human liver OATP1B3 expressed in HEK293 Flp-In cells; type: ADME, cell-based
[6] = target: T3, Solute carrier organic anion transporter family member 1B1; assay: Activity at human liver OATP1B1 expressed in HEK293 Flp-In cells assessed as rate of compound transport per mg of protein; type: ADME, cell-based
[7] = target: T1, Solute carrier organic anion transporter family member 1B3; assay: Activity at human liver OATP1B3 expressed in HEK293 Flp-In cells assessed as rate of compound transport per mg of protein; type: ADME, cell-based
[8] = target: T3, Solute carrier organic anion transporter family member 1B1; assay: Ratio of Vmax to Km for human liver OATP1B1 expressed in HEK293 Flp-In cells assessed per mg protein; type: ADME, cell-based

Row | SMILES | INH [1] | INH [2] | INH [3] | Km [4] | Km [5] | Vmax [6] | Vmax [7] | Vmax/Km [8]
1 | CN1C(=O)CN=C(c2ccccc2)c2cc(Cl)ccc21 [DIAZEPAM] | 9.3% | 51.4% |  |  |  |  |  | 
2 | O=C(O)COCCN1CCN(C(c2ccccc2)c2ccc(Cl)cc2)CC1 (stereo not drawn) [CETIRIZINE] | 40.3% | 29.9% | 35.7% |  |  |  |  | 
3 | CC(C)c1c(C(=O)Nc2ccccc2)c(-c2ccccc2)c(-c2ccc(F)cc2)n1CC[C@@H](O)C[C@@H](O)CC(=O)O [ATORVASTATIN] | 74.4% | 98.3% | 96% | 0.77 µM | 0.73 µM | 6.61 pmol/min | 2.29 pmol/min | 8.58 µL/min
4 | CCOC(=O)N1CCC(=C2c3ccc(Cl)cc3CCc3cccnc32)CC1 [LORATADINE] | 45% | 28.1% | 43.2% |  |  |  |  | 
5 | CC(C)NCC(O)COc1ccc(CC(N)=O)cc1 (stereo not drawn) [ATENOLOL] |  | 6.8% | 20.6% |  |  |  |  | 
